# Reference: article PMC10726135
# Some of the results follow. At the low end of the ranking the order means little. The protein was read in a cell extract, so binding may be indirect.
# Target: T1, HNF4alpha8 (COS-7 nuclear extract) (UniProt P41235-5)
# T1 sequence: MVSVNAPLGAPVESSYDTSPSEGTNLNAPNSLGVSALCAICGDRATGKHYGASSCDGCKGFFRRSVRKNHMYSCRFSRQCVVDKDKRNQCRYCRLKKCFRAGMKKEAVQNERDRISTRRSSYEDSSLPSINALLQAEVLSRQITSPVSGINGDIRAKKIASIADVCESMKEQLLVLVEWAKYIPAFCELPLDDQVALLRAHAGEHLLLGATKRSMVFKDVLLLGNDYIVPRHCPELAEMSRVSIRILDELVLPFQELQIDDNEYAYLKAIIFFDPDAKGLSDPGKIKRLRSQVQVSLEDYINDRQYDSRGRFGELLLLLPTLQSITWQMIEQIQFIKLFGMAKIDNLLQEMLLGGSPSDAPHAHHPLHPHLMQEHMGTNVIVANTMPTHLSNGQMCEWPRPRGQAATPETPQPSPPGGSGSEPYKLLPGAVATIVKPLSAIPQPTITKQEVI
# Assay: protein-binding microarray
# Details: COS-7 nuclear extract on double-stranded Agilent 4x180k PBM; binding buffer, salt, pH and temperature not given; high values mean tight binding; double strand, one strand shown; sequences stand for … in …GCCTAGGGAGATTAGAGTATCGGTCGA
row,Sequence,binding signal (log2 normalized intensity)
1,CTTTCTCCTCCCCTCCCCTCCCCCCACTCA,7.09
2,CTCTGCCACTGGTTTGCACACACCAAAGCC,-1.15
3,ACTGACCTTTGAGAGTCAACACTGAAATAG,2.06
4,AGCCTTGCAGATAAGCCACGAGCCTGCCTG,-1.32
5,GGGATTTGTACAAGTGATTGGATCTGAGAT,0.548
6,CTTATGCTGAATTCCCATCTAAGACTTTAT,-0.77
7,AGTTCAACCATACACACATTCCAATCTTCT,-0.806
8,AAGTTGAATTCTTGACTTTGGACTTTCAAA,6.12
9,AAGTACAAAAGAGGCTTCCTGGGCCAGGTC,-0.87
10,TGTATTCATGAGCATGCTTCCCAAATGGAG,-1.41
11,CAGTTTTTGTTTGCACCTCACAGGAAGAAC,0.819
12,TGCATAGACTGCCCAGAATTTCCTGTTAGA,-1.18
13,CGCTGTTGATGGGCAGCGCGGCGCGCTGGG,-1.38
14,CAAATTTGCCTTGTCCTTAGACAGTAACCC,1.8
15,CCTGCCCATCCCGTGGACTCTGCCTGCCCT,3.54
16,CTGAAGGATATTGGCAACGCCTCAGAAGCA,-1.34
17,ACCCCTCCGGCAGCGGCCGGAAAAAGTGAG,1.73
18,CCAAGCCACCTTCCCGGCCTGGCCACTCCG,-1.26
19,ATAGTTCTCATGGCTCATTTTGGGCATCTG,-0.126
20,TTAGCTTGGACAGAGTTTGTGGTGTTTGTG,1.9
21,TATGCACTCTCACCTTGGGGGCTGCTGGGG,-1.16
22,TATTGTGAAGTGATAGCTAATGGAAAGCTT,-1.37
23,GTGAACCTTTGTCCCGTTATGGCACCAAGA,1.55
24,TCCTTTGTTTAGACTTGGGGCCAAAAAATT,1.21
25,CCAAGACCAAGCAAGCCAGTCAGAATCTCT,-1.24

row,Sequence,binding signal (log2 normalized intensity)
1,CTCATGTGGTCCTAAGACTGACCTTTGATC,10.6
2,TGATGAAACTCCTTCCCTTTCATGTTGAAC,1.78
3,TAGAAGCTGAGCAGCAATCAGCTCCTCAAC,-1.37
4,AATCCTCCCACCTCAGCATCCCAAGTAGCT,1.44
5,TGCTCGGCATCCCTGCCGTGGCTGGAACTC,-1.29
6,CAACATGTGGGCAAATAGGATTAGGAAACC,-1.28
7,AAACGTTCTTCTCTAACCCTCCTTTTAATC,1.33
8,TGCCCCCGATAGCACTATTAGTCTTAGATT,1.95
9,GATTTTCAGGTTCCCCAGTGAGGATGTGTG,1.53
10,GTAACTATGGGGCAAAGTGCAAGCAAACAT,3.12
11,CCAGTTAATGCTGAACTTTAGCTCACTGTT,1.91
12,CAGCCCTCCTCTCTGTAGTCCTCAGCAATA,0.967
13,TGTGTACGGACGCATCTGTCGGCTCTCGTA,-1.34
14,GACAGATAAGAAGGGGTCAGACCAGACAGC,0.858
15,ACCAAGGACAAACTGAGGAGGACATACTCC,-1.32
16,GACAGAAGCAGGACTTAAACACCAGTACTC,-1.48
17,CGGAGGGCGGGGCGGGGCAGCAGGGAAGAG,-1.4
18,GACGTTCTGCCCCTTATCTTCTGGCCACCT,2.08
19,AGCTAAATAAATAACTCTAAGAAATAGGTT,-1.45
20,AAAGTTCAAGTCATAACTGGATGGTGCCTA,0.211
21,CTGGCAGAATTCCTTCTTGCTTAGGATAGG,-1.28
22,TAGACCTGGCCTCGGGGAGCTGTGGGCCTC,-1.02
23,TAGGGACCGCAAATAAAAGAGGGCCCCATC,-1.31
24,GTGACCTCTTATCTCATCCTGTGACCAAGA,1.52
25,CAGAGACGGCAAGCCATAGTTAACCCAGAA,-1.21

row,Sequence,binding signal (log2 normalized intensity)
1,GGTCATTTGTTTTTACAGACAGGCATGACA,0.0933
2,TCCACACCCCAGCCTGCCCTCCTAGGGACA,3.34
3,AAGCAATGCTGGGGACCTTTGGCCTTTACC,5.77
4,ATGAGGCCCCAGTGATGACAGCAAGATAAT,-1.3
5,TCTCTCCCTCCTCCTTTTTTTCCCCTCCCT,4.47
6,CACTCAGGCACTGGGATCCAAAGTTCATGG,4.52
7,GCCAGTGTGGCTAACAATATGGGGTGGGGA,-1.31
8,TAAATAGTGACAAATTGTATAGTTGCTGAT,-0.564
9,GGAGCATGATGAAATTTCCTCTTACCACAT,-0.847
10,TTGTTTTAAGTTCATAGGTCCTCTTGGAAG,1.63
11,CAGCCAGCCTGAGGCAGTTGGAAAATATTT,-1.3
12,GAATAGTTAAGTAACGTGTCAGAGGTCACT,3.94
13,TGCTCCAGCCAGAGGCCTTATCTGGCCGCC,-1.33
14,TGTGTACTCTATCCAGTAGAGGGCATAGCA,1.9
15,CCCCTTCTGAGTCTCCAATGTCCATTATAT,1.52
16,ACAAGAGGAATGTTCATTCATTCACCTTTC,0.765
17,GGCGCGCGGGCCGGGAGGGGGACGCTTTCT,-1.29
18,AATGTGATAGACAGGATGCCTGAGTAATTA,-0.196
19,CAAACTTCTCCACTCTTCATAATTACCATT,-0.446
20,TCTGAGGGCCAGCAGTGCCCAAAGCCCAAG,-1.26
21,CATTCCATTACTGCAGAGGCTGGTTCACAC,1.08
22,TACAGAGGCTCTGAGAGTCTCAGTGACTCA,-1.24
23,CTGTTATCAGAGCTGGAGGAGACCTTTGGA,6.18
24,CCAGGTGTAGATAAACTGGAAAGGGCTTCA,-1.32
25,TTGTTGACATCTGCTTCCAAAGAGCTCAAC,-1.24

row,Sequence,binding signal (log2 normalized intensity)
1,GTTCTGGACTTCTCTGCCCTCTTCCCTCTA,2.65
2,AAAGGTCTGCTGTACATATTTGCCAAGTGA,0.204
3,AGTTGGTGAGAACAGAGTCTCCGAGGAACC,-1.35
4,CAAAGGTCAGGACAAGGCTCTGGTGGGGAA,2.94
5,CTTCCTGGCCCTAGCTGGGTTTTTCAAAGG,1.17
6,GGGATGTTTGGCAGCTGAGGATTGTCAGGC,-0.398
7,TTACAAAGGTCACACACCTGTGCAAACATT,1.9
8,TAATCTTCACTAGACCTAGATAAGGGAGAT,-1.18
9,GTGCTGGGATTACAGGCGTGAGCCACCGCG,-1.3
10,TATTAGAGTCCCTTTTTTAGACAAGGAAAA,-0.42
11,TGTTCTAGCTCGGGGGCCCTTCCCCCCTCT,2.68
12,TGACCACATGCCCTCAGTACAGGGCGTCCT,-0.511
13,ATATTCTCTCGTCACCTCCACCCACCCGTG,4.13
14,AGAAAGGCAGAAAACTCAGATTCCTATGGT,-1.08
15,GGACTTGGGACTTTCGAGTTAATGCTGGAG,3.2
16,GTCACTCCCACCCTTCCTGTTATGTTTTTT,1.88
17,ATGTCTCCAGAAACCAACCTTTGATCATTC,5.75
18,GCCCACTCCTCCCTCAGGGATCTTTGCACT,3.3
19,AGGGTCAAAGGGTCAAGTTCAGATCCTGGC,5.03
20,GTCAAACTGGTTTCTTGTCTGCCCCAGGGC,2.47
21,TTTAGGCTGTCAGCCACCAAAGCAGCTAGC,-1.17
22,GTCAAGCAATGATCTTCATGAACTTCTGTC,1.37
23,CCACAAGGGTTTAAATCTGACTGCACTGCA,-1.23
24,TCACCAGCTAAGCTGTTACTCATTCCCAGG,-1.31
25,CCAAAGTCCATGCTATTAAGCACTAGAAAG,-1.3

row,Sequence,binding signal (log2 normalized intensity)
1,ATTCTGCATTTTTCTTTCCTGTAAATAATT,0.347
2,AGGCAGAGAGGCTGCTCAGTTTAAGTCAAA,-1.26
3,TAAGCAGAGGATGGGAATTAGGGAGTAGGG,-1.4
4,GGCAATTGTGTTTGTCTTAGGGGGTCTGGT,0.75
5,CAGGGGAATGGAGACACACCTGCGGTGACT,-1.36
6,AACTTTTCCATGTCCAAAGGTCTTCATGAG,4.33
7,GTCAGAACTGTGGACTCGCTGCCTTTTATC,1.03
8,CCTACGCTACGCACCAGGCATACTCCTCCT,-1.27
9,AGATAAGACAAGCTCTGTTTGTTTTGTTAC,1.26
10,AAGCTGCTGCCAAGCGTCAGTCATACAGAG,-1.43
11,CCTTTCGGTGGGACTAAATTCTGCGGCGGA,-0.776
12,GAGTGCCCTTGCCGAGAGCGGCTCGTTGGT,-1
13,TTTGTATGGCAGGGGTTAACCTCTATTGAC,2.29
14,AATCTCCAACAAGGCAGGAGATTCCACATT,-1.27
15,CCTGAGAGGCCAGTTTGACCTTTGCATTCT,8.31
16,TTGCCCACATTCACACAATCAGTGTGTTGA,0.225
17,TCTACCTTTGGCCTGGGGATTTACTAAAGT,0.709
18,CACACTGTTTGCGCAAACTATCTAAACAGA,-1.35
19,GTAACAAAGGAAAGAGCTAACATATACCAT,-1.15
20,AGTGAGCCAAGGTACCCTGGCTTGTAATTC,-0.844
21,CCCCCTCCTCACCCCACTTTGGTTCACCGC,4.2
22,CCCTATTTCCCTCTGTGCCCGAGCTGTCTT,1.43
23,TCCTGAAGCCCTTCTTCTGGAGCCTCAGTA,-1.37
24,GGTTTTTGTCAAAGATAGTTGTAGTTACAG,1.26
25,AGGCAAGGAATTTGGAATTCCCTGCAAGGA,-1.43

row,Sequence,binding signal (log2 normalized intensity)
1,ATAGAGGAGTCAAGCAAACACACTTGCTCT,-1.43
2,GTGGGGACCTGGACTCCCAAGATGGATTGG,0.874
3,TGTGGGTGAGGCTGTGATGTTTGCCCATGA,0.65
4,CGTCTAAACAAACTCCCAGTCTGTTATCAG,-1.04
5,GTACAAACACATACCTTAAATAAGAGACTC,-1.37
6,AAAGTTCATCTGGGCTTTAGGTTTGGTGTT,1.8
7,TCAAGGGTCATTTGTTTTTACAGACAGGCA,1.61
8,GCCTGGCCAAGTTGAGGAGTTTGTACTTTA,3.71
9,GGGCGCTGTCCGCCGCCTCGTGGTGCTGAT,-1.26
10,CGCTGTAGAAAGTGGTTTCAAGGTGACCCC,6.38
11,AAGGTCAGGGGCAGGGTCGCGCGGGCTGCT,-1.31
12,TTAAAGGATATCATCAGTGCCATTCATTAG,-1.16
13,AAATACATTCTGAACCAATGCCACAGAAAA,-1.31
14,GTCCCTGGGGACAGGGATTAAGTACCGCTC,-1
15,TGACATCCCTATGTTGTCCCTGCCCTTTGT,4.34
16,ATCTCTGTCCCTGATACCATTATCTCCAGC,-1.23
17,AGAGAAATGAGGCACAGTAACCTGACCCCC,5.88
18,AAGGTAAATATTGTCAGTGAGGAATGTGCA,0.658
19,GTGGGGGTGGAGGCAGCAGCTCCAATTAGG,-1.28
20,GGAGACCCATGGCAGAGGCTGTACTCCTCA,-1.34
